Reference: patent US20250011428A1

B1: CD3_12 (antibody, human IgG1, lambda)
heavy: EVQLVESGGGLVQPGGSLKLSCAASGFTFNTYAMNWVRQASGKGLEWVGRIRSKYNNYATYYADSVKDRFTISRDDSKSTLYLQMNSLKTEDTAVYYCVRHGNFGNSYVSWFAYWGQGTLVTVSSASTKGPSVFPLAPSSKSTSGGTAALGCLVKDYFPEPVTVSWNSGALTSGVHTFPAVLQSSGLYSLSSVVTVPSSSLGTQTYICNVNHKPSNTKVDKRV[human IgG1 Fc with L235C N297C (EU numbers) cut from this listing]
light: QAVVTQEPSLTVSPGGTVTLTCRSSTGAVTTSNYANWVQQKPGQAPRGLIGGTNKRAPWTPARFSGSLLGDKAALTLSGAQPEDEAEYFCALWYSNLWVFGGGTKLTVLGQPKAAPSVTLFPPSSEELQANKATLVCLISDFYPGAVTVAWKADSSPVKAGVETTTPSKQSNNKYAASSYLSLTPEQWKSHRSYSCQVTHEGSTVEKTVAPTECS
B2: IgG4_CD3_WT (antibody)
heavy: EVQLVESGGGLVQPGGSLKLSCAASGFTFNTYAMNWVRQASGKGLEWVGRIRSKYNNYATYYADSVKDRFTISRDDSKSTLYLQMNSLKTEDTAVYYCVRHGNFGNSYVSWFAYWGQGTLVTVSSASTKGPSVFPLAPCSRSTSESTAALGCLVKDYFPEPVTVSWNSGALTSGVHTFPAVLQSSGLYSLSSVVTVPSSSLGTKTYTCNVDHKPSNTKVDKRV[human IgG4 Fc cut from this listing]
light: B1 light
B3: IgG4_CD3_S228P (antibody)
heavy: EVQLVESGGGLVQPGGSLKLSCAASGFTFNTYAMNWVRQASGKGLEWVGRIRSKYNNYATYYADSVKDRFTISRDDSKSTLYLQMNSLKTEDTAVYYCVRHGNFGNSYVSWFAYWGQGTLVTVSSASTKGPSVFPLAPCSRSTSESTAALGCLVKDYFPEPVTVSWNSGALTSGVHTFPAVLQSSGLYSLSSVVTVPSSSLGTKTYTCNVDHKPSNTKVDKRV[human IgG4 Fc with S228P (EU numbers) cut from this listing]
light: B1 light
B4: IgG4_CD3_9 (antibody)
heavy: EVQLVESGGGLVQPGGSLKLSCAASGFTFNTYAMNWVRQASGKGLEWVGRIRSKYNNYATYYADSVKDRFTISRDDSKSTLYLQMNSLKTEDTAVYYCVRHGNFGNSYVSWFAYWGQGTLVTVSSASTKGPSVFPLAPCSRSTSESTAALGCLVKDYFPEPVTVSWNSGALTSGVHTFPAVLQSSGLYSLSSVVTVPSSSLGTKTYTCNVDHKPSNTKVDKRV[human IgG4 Fc with L235C (EU numbers) cut from this listing]
light: B1 light

molecular target: Gamma receptors FcγRI, FcγRII, and FcγRIII expressed on THP-1 cells; experiment: cell-based or functional assay

Which Maximum response in RGA assay (LU) does the source give for B1 here?
Its Maximum response in RGA assay (LU) is 11600 LU.

B2 was tested. Which Maximum response in RGA assay (LU) did it give?
The Maximum response in RGA assay (LU) was 36100 LU.

How did the Maximum response in RGA assay (LU) turn out when B3 was run?
The Maximum response in RGA assay (LU) was 34000 LU.

With B4 as the binder, how does the Maximum response in RGA assay (LU) read?
The Maximum response in RGA assay (LU) was 5650 LU.
